Reference: the supplement of paper PMC3334620
In all, about 33,000 sequences were measured (“E-score (-0.5 to 0.5)”: median about -0.012, highest 2% from about 0.29 on). The list shows a part of the results.

Each sequence was assayed against T1, Ybr033w (UniProt P38073) (assay: PBM E-score (8-mer binding enrichment) (E-score (-0.5 to 0.5)); higher = stronger / more preferred TF binding; most listed sequences are background and not binding sites). Conditions: protein concentration: 200 nM; construct: GST-full length.
T1 sequence: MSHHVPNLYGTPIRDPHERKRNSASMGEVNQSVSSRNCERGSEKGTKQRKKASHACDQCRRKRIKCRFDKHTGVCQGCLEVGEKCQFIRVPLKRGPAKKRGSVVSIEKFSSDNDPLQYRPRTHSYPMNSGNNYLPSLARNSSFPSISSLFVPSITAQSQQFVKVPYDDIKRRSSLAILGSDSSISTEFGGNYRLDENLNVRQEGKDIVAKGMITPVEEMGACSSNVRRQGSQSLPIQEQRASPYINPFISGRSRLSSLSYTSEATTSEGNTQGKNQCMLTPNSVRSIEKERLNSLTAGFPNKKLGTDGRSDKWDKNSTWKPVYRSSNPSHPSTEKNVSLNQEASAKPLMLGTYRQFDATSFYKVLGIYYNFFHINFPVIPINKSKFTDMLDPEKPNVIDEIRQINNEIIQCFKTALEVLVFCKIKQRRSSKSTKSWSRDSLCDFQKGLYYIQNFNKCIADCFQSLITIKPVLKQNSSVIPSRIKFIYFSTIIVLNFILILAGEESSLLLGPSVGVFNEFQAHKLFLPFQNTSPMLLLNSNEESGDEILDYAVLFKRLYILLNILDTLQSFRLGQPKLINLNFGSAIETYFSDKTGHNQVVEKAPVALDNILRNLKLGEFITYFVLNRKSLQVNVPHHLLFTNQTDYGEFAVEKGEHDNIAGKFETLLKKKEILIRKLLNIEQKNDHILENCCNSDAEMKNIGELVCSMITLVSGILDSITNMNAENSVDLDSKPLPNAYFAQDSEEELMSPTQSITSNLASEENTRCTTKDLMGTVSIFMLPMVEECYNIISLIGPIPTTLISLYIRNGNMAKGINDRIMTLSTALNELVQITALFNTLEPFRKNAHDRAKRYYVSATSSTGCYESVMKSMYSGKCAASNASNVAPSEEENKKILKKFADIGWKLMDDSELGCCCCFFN
In short: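 Masliner-normalised scans of fluorescent anti-GST signal were the basis for scoring. That signal came from GST-tagged yeast transcription factors applied at about 100-200 nM to double-stranded universal all-10-mer Agilent arrays on fresh or once-stripped slides. Each ungapped eight-base word, pooled with its reverse complement, received an E-score from the Universal PBM Analysis Suite.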

Row | Sequence | PBM E-score
1 | AGGCCGCG | -0.0558
2 | GAACGGAA | 0.0333
3 | CAAATGAG | 0.0404
4 | ACCGGAAT | 0.157
5 | GATAGAGA | 0.0298
6 | AATATTGG | 0.047
7 | CGGATGCC | -0.168
8 | AGCCCGTC | -0.243
9 | AAAACGAA | 0.169
10 | AATGGTTG | 0.0973
11 | ACGTGGCG | -0.113
12 | ATGCTCTC | -0.247
13 | CTTAAGGA | -0.0462
14 | GTTCGAAC | 0.209
15 | AGGTGCGG | -0.0339
16 | TATATAGA | 0.219
17 | AAACATTT | 0.269
18 | AAGACAGA | 0.0921
19 | GGTGCACA | -0.168
20 | ATCGAAAG | 0.185
21 | AGGAACCC | -0.224
22 | CCTATTTA | 0.0765

Row | Sequence | PBM E-score
23 | ACCGCACT | -0.0787
24 | CAACAGGA | -0.0988
25 | AATAACAG | 0.133
26 | AGTCGAAG | 0.00687
27 | CTACGGGA | -0.0259
28 | ATACCCGC | 0.00388
29 | ACCTCGCT | 0.0298
30 | TGTGCACA | -0.0768
31 | CCGTTAGA | 0.0712
32 | GCAGACGA | -0.0955
33 | ATACGACG | 0.135
34 | CAACGTAG | -0.114
35 | CTGACCCA | -0.29
36 | CGCTCTTA | 0.0937
37 | GCGGCACC | -0.1
38 | GCAAGTTA | 0.0982
39 | GCTGCGAC | 0.0106
40 | CCCGTTGC | -0.267
41 | CGCGGAGC | -0.164
42 | GGTTTGAA | -0.0528
43 | CATAGTGC | 0.0144
44 | AAGTTAGC | 0.134

Row | Sequence | PBM E-score
45 | ATATTCCG | 0.428
46 | AGTGTGTC | 0.00564
47 | GTCCGAAA | 0.122
48 | ACACCCGT | -0.108
49 | GGGCTATA | -0.101
50 | CGCAAGGA | 0.0217
51 | ACCACTAA | 0.159
52 | AAGGTGGT | 0.0271
53 | ACGACAAT | 0.104
54 | ATTAGAGA | 0.115
55 | CGAACAAG | -0.0298
56 | CCAGTCAG | -0.144
57 | GCATGATA | 0.109
58 | CCATGGAG | -0.2
59 | CAAAGAAG | 0.0853
60 | AGCGGGTC | -0.332
61 | GACAGAAA | 0.16
62 | GACAGCAC | -0.00022
63 | CTCACGAA | -0.0165
64 | AAATTGAA | 0.127
65 | AGGAGGGG | -0.256
66 | GCACATTA | 0.0714

Row | Sequence | PBM E-score
67 | AACTCGCA | -0.0927
68 | AAGAGAAC | 0.109
69 | CCTAGCCA | -0.0517
70 | ATATGGGA | 0.0235
71 | ATCTGTCC | -0.196
72 | AAGGAAAT | 0.185
73 | CGGCTTAC | 0.0765
74 | AGGCAGGA | -0.106
75 | GTGCCGAA | -0.0593
76 | CGCAGCAG | -0.109
77 | AGTTGTAC | 0.0858
78 | CGAGAGTC | -0.177
79 | AAGAACAG | 0.0974
80 | CATACTAA | 0.195
81 | CTGGGCAC | -0.178
82 | CTATTCTC | 0.12
83 | ACTGATAA | 0.138
84 | ACTCCTCT | -0.183
85 | CCGACGTC | -0.0886
86 | TAGAGATA | 0.167
87 | CTTGCTAC | -0.0863
88 | ACTGGATA | 0.235

Row | Sequence | PBM E-score
89 | AACCCCGT | -0.093
90 | ACACTTAA | 0.203
91 | ATGTAGGG | -0.0536
92 | CCCACGCA | -0.0607
93 | TCTGCTAA | -0.0429
94 | AGTTAATG | 0.216
95 | ACGTGGTC | -0.0933
96 | GATACCAA | 0.111
97 | CTTGACGA | -0.169
98 | CATCGCGC | -0.113
99 | AATAATAG | 0.202
100 | GCCTACGC | -0.0539
101 | CTCGCAAC | -0.052
102 | ACGTGGTA | 0.0672
103 | CAAAAAAG | 0.261
104 | AAAGTATG | -0.0102
105 | GATACTCC | -0.0236
106 | AGCGAATC | 0.106
107 | AAACAGTC | -0.0941
108 | CAGTATAA | 0.152
109 | GCCTAGAC | -0.151
